From the supplement of paper PMC8728848
The list shows a part of the results.

Legend:
Assay in all cases: glycan array binding signal (z-score within array); higher = stronger binding
Conditions in all cases: glycan notation: IUPAC condensed, linker removed
[1] = molecular target: GlcNAc(a1-6)Gal(b1-4)GlcNAc
In short: (§1)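 Glycan array binding is given as a within-array Z-score, which can be read as non-binding when negative. The arrays, 3228 of them, came from the Consortium for Functional Glycomics database and were retained only where the protein sequence was available. Z-scores were averaged across arrays of the same protein sequence at different concentrations or buffers and across linkers.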

[2] = molecular target: GlcNAc(b1-2)Gal(b1-3)GalNAc
In short: as §1

[3] = molecular target: GlcNAc(b1-2)Man(a1-3)[GlcNAc(b1-2)Man(a1-6)]Man(b1-4)GlcNAc(b1-4)GlcNAc
In short: as §1

[4] = molecular target: GlcNAc(b1-2)Man(a1-3)[GlcNAc(b1-2)Man(a1-6)]Man(b1-4)GlcNAc(b1-4)[Fuc(a1-6)]GlcNAc
In short: as §1

[5] = molecular target: GlcNAc(b1-2)Man(a1-3)[GlcNAc(b1-4)][GlcNAc(b1-2)Man(a1-6)]Man(b1-4)GlcNAc(b1-4)GlcNAc
In short: as §1

[6] = molecular target: GlcNAc(b1-2)Man(a1-3)[GlcNAc(b1-4)][GlcNAc(b1-2)Man(a1-6)]Man(b1-4)GlcNAc(b1-4)[Fuc(a1-6)]GlcNAc
In short: as §1

[7] = molecular target: GlcNAc(b1-2)[GlcNAc(b1-4)]Man(a1-3)[GlcNAc(b1-2)Man(a1-6)]Man(b1-4)GlcNAc(b1-4)GlcNAc
In short: as §1

[8] = molecular target: GlcNAc(b1-2)[GlcNAc(b1-4)]Man(a1-3)[GlcNAc(b1-4)][GlcNAc(b1-2)Man(a1-6)]Man(b1-4)GlcNAc(b1-4)GlcNAc
In short: as §1

[9] = molecular target: GlcNAc(b1-2)[GlcNAc(b1-4)]Man(a1-3)[GlcNAc(b1-4)][GlcNAc(b1-2)[GlcNAc(b1-6)]Man(a1-6)]Man(b1-4)GlcNAc(b1-4)GlcNAc
In short: as §1

[10] = molecular target: GlcNAc(b1-2)[GlcNAc(b1-4)]Man(a1-3)[GlcNAc(b1-4)][GlcNAc(b1-2)[GlcNAc(b1-6)]Man(a1-6)]Man(b1-4)GlcNAc(b1-4)[Fuc(a1-6)]GlcNAc
In short: as §1

[11] = molecular target: GlcNAc(b1-2)[GlcNAc(b1-6)]Man(a1-6)[GlcNAc(b1-2)Man(a1-3)]Man(b1-4)GlcNAc(b1-4)GlcNAc
In short: as §1

[12] = molecular target: GlcNAc(b1-2)[GlcNAc(b1-6)]Man(a1-6)[GlcNAc(b1-2)Man(a1-3)]Man(b1-4)GlcNAc(b1-4)[Fuc(a1-6)]GlcNAc
In short: as §1

[13] = molecular target: GlcNAc(b1-2)[GlcNAc(b1-6)]Man(a1-6)[GlcNAc(b1-4)][GlcNAc(b1-2)Man(a1-3)]Man(b1-4)GlcNAc(b1-4)GlcNAc
In short: as §1

GlcNAc(b1-3)Fuc = molecular target: GlcNAc(b1-3)Fuc
In short: as §1

GlcNAc(b1-3)Gal = molecular target: GlcNAc(b1-3)Gal
In short: as §1

[14] = molecular target: GlcNAc(b1-3)Gal(b1-3)GalNAc
In short: as §1

GlcNAc(b1-3)Gal(b1-4)Glc = molecular target: GlcNAc(b1-3)Gal(b1-4)Glc
In short: as §1

[15] = molecular target: GlcNAc(b1-3)Gal(b1-4)GlcNAc
In short: as §1

B1: CC1G-11630 (Coprinopsis cinerea), A8P462 (protein)
chain: MTTEAKIKLKAVVYWELVFDYDNSSNTGEITQSYTVKISQTSTRSTFASEVSTTTIDTLTKNNQEVDVGASYGAISANVSASWEHSEEVNNMLEKTTQTSTEDTYTVETEETRSYTIGPGGMLSLFQKHFSGPGMHVAFDVFTTDLELAKERTEIDIDVDVEAIRFVREIRVVYTDIMSEAPGDHVREINGKNPDINYGFNGKFVWLVPEQTRKTAQALTNVEFVSQAESDDRYWDLAAGAGGSNRYLIPVYDTNNKDKIYELALWRSDSYITHDKVKAAGWSGTTGDINSGRGGTYLNLVWKTRHAY
[1]
  glycan array binding signal (z-score): -0.919
[2]
  glycan array binding signal (z-score): -0.697
[3]
  glycan array binding signal (z-score): -0.24
[4]
  glycan array binding signal (z-score): -0.33
[5]
  glycan array binding signal (z-score): -0.294
[6]
  glycan array binding signal (z-score): -0.482
[7]
  glycan array binding signal (z-score): -0.331
[8]
  glycan array binding signal (z-score): -0.368
[9]
  glycan array binding signal (z-score): -0.201
[10]
  glycan array binding signal (z-score): -0.568
[11]
  glycan array binding signal (z-score): 0.438
[12]
  glycan array binding signal (z-score): -0.255
[13]
  glycan array binding signal (z-score): -0.34
GlcNAc(b1-3)Fuc
  glycan array binding signal (z-score): -0.237
GlcNAc(b1-3)Gal
  glycan array binding signal (z-score): -0.55
[14]
  glycan array binding signal (z-score): -0.011
GlcNAc(b1-3)Gal(b1-4)Glc
  glycan array binding signal (z-score): 0.086
[15]
  glycan array binding signal (z-score): -0.538
